# This is one part of the list.
# Tests used:
# Assay in all cases: glycan array binding signal (z-score within array); higher = stronger binding
# Conditions in all cases: glycan notation: IUPAC condensed, linker removed
# [1] = target: Fuc(a1-3)[Gal3S(b1-4)]GlcNAc6S
# Method in brief: (§1)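 From the Consortium for Functional Glycomics database, 3228 arrays were curated, keeping only those whose protein sequence was available. Binding is given as a within-array Z-score averaged across arrays sharing a protein sequence and across linkers. Negative Z-scores can be read as non-binding.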
# [2] = target: Fuc(a1-3)[GalNAc(b1-4)]GlcNAc
# Method in brief: as §1
# [3] = target: Fuc(a1-3)[GalNAc(b1-4)]GlcNAc6S
# Method in brief: as §1
# Fuc(a1-4)GlcNAc = target: Fuc(a1-4)GlcNAc
# Method in brief: as §1
# Fuc(b1-3)GlcNAc = target: Fuc(b1-3)GlcNAc
# Method in brief: as §1
# Gal(a1-2)Gal = target: Gal(a1-2)Gal
# Method in brief: as §1
# Gal(a1-3)Gal = target: Gal(a1-3)Gal
# Method in brief: as §1
# Gal(a1-3)Gal(b1-3)GlcNAc = target: Gal(a1-3)Gal(b1-3)GlcNAc
# Method in brief: as §1
# [4] = target: Gal(a1-3)Gal(b1-3)GlcNAc(b1-2)Man
# Method in brief: as §1
# [5] = target: Gal(a1-3)Gal(b1-3)GlcNAc(b1-2)Man(a1-3)[Gal(a1-3)Gal(b1-3)GlcNAc(b1-2)Man(a1-6)]Man(b1-4)GlcNAc(b1-4)GlcNAc
# Method in brief: as §1
# [6] = target: Gal(a1-3)Gal(b1-3)GlcNAc(b1-3)GalNAc
# Method in brief: as §1
# [7] = target: Gal(a1-3)Gal(b1-3)GlcNAc(b1-6)GalNAc
# Method in brief: as §1
# [8] = target: Gal(a1-3)Gal(b1-3)[Fuc(a1-4)]GlcNAc(b1-2)Man(a1-3)[Gal(a1-3)Gal(b1-3)[Fuc(a1-4)]GlcNAc(b1-2)Man(a1-6)]Man(b1-4)GlcNAc(b1-4)GlcNAc
# Method in brief: as §1
# Gal(a1-3)Gal(b1-4)Glc = target: Gal(a1-3)Gal(b1-4)Glc
# Method in brief: as §1
# Gal(a1-3)Gal(b1-4)GlcNAc = target: Gal(a1-3)Gal(b1-4)GlcNAc
# Method in brief: as §1
# [9] = target: Gal(a1-3)Gal(b1-4)GlcNAc(b1-2)Man
# Method in brief: as §1
# [10] = target: Gal(a1-3)Gal(b1-4)GlcNAc(b1-2)Man(a1-3)[Gal(a1-3)Gal(b1-4)GlcNAc(b1-2)Man(a1-6)]Man(b1-4)GlcNAc(b1-4)GlcNAc
# Method in brief: as §1
# [11] = target: Gal(a1-3)Gal(b1-4)GlcNAc(b1-3)GalNAc
# Method in brief: as §1
# [12] = target: Gal(a1-3)Gal(b1-4)GlcNAc(b1-6)GalNAc
# Method in brief: as §1
# [13] = target: Gal(a1-3)Gal(b1-4)[Fuc(a1-3)]GlcNAc
# Method in brief: as §1
# [14] = target: Gal(a1-3)Gal(b1-4)[Fuc(a1-3)]GlcNAc(b1-2)Man(a1-3)[Gal(a1-3)Gal(b1-4)[Fuc(a1-3)]GlcNAc(b1-2)Man(a1-6)]Man(b1-4)GlcNAc(b1-4)GlcNAc
# Method in brief: as §1
# Gal(a1-3)GalNAc = target: Gal(a1-3)GalNAc
# Method in brief: as §1
# [15] = target: Gal(a1-3)[Gal(a1-4)]Gal(b1-4)GlcNAc
# Method in brief: as §1
# [16] = target: Gal(a1-4)Gal(b1-3)GlcNAc(b1-2)Man(a1-3)[Gal(a1-4)Gal(b1-3)GlcNAc(b1-2)Man(a1-6)]Man(b1-4)GlcNAc(b1-4)GlcNAc
# Method in brief: as §1
# Gal(a1-4)Gal(b1-4)Glc = target: Gal(a1-4)Gal(b1-4)Glc
# Method in brief: as §1
# Gal(a1-4)Gal(b1-4)GlcNAc = target: Gal(a1-4)Gal(b1-4)GlcNAc
# Method in brief: as §1
# [17] = target: Gal(a1-4)Gal(b1-4)GlcNAc(b1-2)Man(a1-3)[Gal(a1-4)Gal(b1-4)GlcNAc(b1-2)Man(a1-6)]Man(b1-4)GlcNAc(b1-4)GlcNAc
# Method in brief: as §1
# [18] = target: Gal(a1-4)Gal(b1-4)GlcNAc(b1-3)Gal(b1-4)Glc
# Method in brief: as §1
# Gal(a1-4)GlcNAc = target: Gal(a1-4)GlcNAc
# Method in brief: as §1
# Gal(a1-6)Glc = target: Gal(a1-6)Glc
# Method in brief: as §1
# Gal(b1-2)Gal = target: Gal(b1-2)Gal
# Method in brief: as §1
# Gal(b1-3)Gal = target: Gal(b1-3)Gal
# Method in brief: as §1
# Gal(b1-3)Gal(b1-4)GlcNAc = target: Gal(b1-3)Gal(b1-4)GlcNAc
# Method in brief: as §1
# [19] = target: Gal(b1-3)Gal(b1-4)GlcNAc(b1-2)Man(a1-3)[Gal(b1-3)Gal(b1-4)GlcNAc(b1-2)Man(a1-6)]Man(b1-4)GlcNAc(b1-4)GlcNAc
# Method in brief: as §1
# Gal(b1-3)GalNAc = target: Gal(b1-3)GalNAc
# Method in brief: as §1
# [20] = target: Gal(b1-3)GalNAc(a1-3)[Fuc(a1-2)]Gal(b1-4)Glc
# Method in brief: as §1
# [21] = target: Gal(b1-3)GalNAc(a1-3)[Fuc(a1-2)]Gal(b1-4)GlcNAc
# Method in brief: as §1
# Gal(b1-3)GalNAc(b1-3)Gal = target: Gal(b1-3)GalNAc(b1-3)Gal
# Method in brief: as §1
binder,measurement,setting,value
"PA-IL (Pseudomonas aeruginosa), Q05097 (protein) MAWKGEVLANNEAGQVTSIIYNPGDVITIVAAGWASYGPTQKWGPQGDREHPDQGLICHDAFCGALVMKIGNSGTIPVNTGLFRWVAPNNVQGAITLIYNDVPGTYGNNSGSFSVNIGKDQS",glycan array binding signal (z-score),[1],-0.224
same,glycan array binding signal (z-score),[2],-0.229
same,glycan array binding signal (z-score),[3],-0.227
same,glycan array binding signal (z-score),Fuc(a1-4)GlcNAc,-0.223
same,glycan array binding signal (z-score),Fuc(b1-3)GlcNAc,-0.219
same,glycan array binding signal (z-score),Gal(a1-2)Gal,1.54
same,glycan array binding signal (z-score),Gal(a1-3)Gal,1.68
same,glycan array binding signal (z-score),Gal(a1-3)Gal(b1-3)GlcNAc,1.62
same,glycan array binding signal (z-score),[4],2.61
same,glycan array binding signal (z-score),[5],0.015
same,glycan array binding signal (z-score),[6],0.581
same,glycan array binding signal (z-score),[7],0.533
same,glycan array binding signal (z-score),[8],0.34
same,glycan array binding signal (z-score),Gal(a1-3)Gal(b1-4)Glc,1.89
same,glycan array binding signal (z-score),Gal(a1-3)Gal(b1-4)GlcNAc,5.08
same,glycan array binding signal (z-score),[9],3.39
same,glycan array binding signal (z-score),[10],6.97
same,glycan array binding signal (z-score),[11],3.06
same,glycan array binding signal (z-score),[12],3.31
same,glycan array binding signal (z-score),[13],5.02
same,glycan array binding signal (z-score),[14],1.82
same,glycan array binding signal (z-score),Gal(a1-3)GalNAc,1.32
same,glycan array binding signal (z-score),[15],6.55
same,glycan array binding signal (z-score),[16],7.29
same,glycan array binding signal (z-score),Gal(a1-4)Gal(b1-4)Glc,2.27
same,glycan array binding signal (z-score),Gal(a1-4)Gal(b1-4)GlcNAc,4.79
same,glycan array binding signal (z-score),[17],8.23
same,glycan array binding signal (z-score),[18],5.73
same,glycan array binding signal (z-score),Gal(a1-4)GlcNAc,3.63
same,glycan array binding signal (z-score),Gal(a1-6)Glc,0.538
same,glycan array binding signal (z-score),Gal(b1-2)Gal,-0.12
same,glycan array binding signal (z-score),Gal(b1-3)Gal,-0.219
same,glycan array binding signal (z-score),Gal(b1-3)Gal(b1-4)GlcNAc,-0.173
same,glycan array binding signal (z-score),[19],7.65
same,glycan array binding signal (z-score),Gal(b1-3)GalNAc,-0.229
same,glycan array binding signal (z-score),[20],-0.238
same,glycan array binding signal (z-score),[21],-0.23
same,glycan array binding signal (z-score),Gal(b1-3)GalNAc(b1-3)Gal,-0.221
